This is one part of the list. The energies were worked out here from pooled read counts, against the library average; single values are noisy.
Target: T1, Pho4 (S. cerevisiae) (UniProt P07270)
T1 sequence: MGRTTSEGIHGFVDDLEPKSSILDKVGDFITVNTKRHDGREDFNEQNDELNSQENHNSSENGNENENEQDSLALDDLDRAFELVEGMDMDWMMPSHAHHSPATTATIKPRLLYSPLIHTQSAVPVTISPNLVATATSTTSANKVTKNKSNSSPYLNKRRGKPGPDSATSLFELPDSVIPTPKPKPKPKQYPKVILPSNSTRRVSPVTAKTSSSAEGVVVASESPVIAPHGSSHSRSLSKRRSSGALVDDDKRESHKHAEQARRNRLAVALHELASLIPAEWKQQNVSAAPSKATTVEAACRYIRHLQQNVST
Assay: relative binding free energy (BET-seq); higher = weaker binding
Conditions: reference: library average

Sequence	relative binding free energy [kcal/mol]
AATGTCACGTGAGGTC	0.23
AATTACACGTGGGTTG	0.04
GATCTCACGTGTGTGG	0.28
GGTGTCACGTGGGCTG	-0.02
GATGCCACGTGGTTTG	-0.04
CAGTGCACGTGTAAGG	0.03
AGTGTCACGTGACAGT	0.12
GAATTCACGTGGATTG	0.31
GGTAGCACGTGGGGTG	-0.16
TGTTTCACGTGTGCGC	0.28
CTTTGCACGTGTTATT	-0.04
TATGGCACGTGTGCCT	0.03
GGTGGCACGTGTATGA	-0.01
GGGGTCACGTGGTCAT	0.02
TGTAGCACGTGCAGGG	-0.32
GCTAACACGTGAGGGT	0.36
GGATACACGTGGGCTG	-0.12
GTTTACACGTGCTGGG	0.14
GAGTACACGTGGTAGC	0.25
AGTTTCACGTGCGCAG	0.34
CGAGGCACGTGCGGGT	-0.16
TAATACACGTGATTGG	0.16
AGGGCCACGTGTTATA	-0.03
GGAATCACGTGCGGTA	0.1
TATAACACGTGTAGGG	0.14

Sequence	relative binding free energy [kcal/mol]
TGGGCCACGTGTAGTA	-0.08
AGTGCCACGTGGGGCG	-0.33
ATTGACACGTGGGTTG	-0.09
TGGGTCACGTGGAAGC	0.09
TTTTCCACGTGGGGCT	-0.1
TAATCCACGTGAGGGG	0.18
TTAGACACGTGTGGAT	0.12
GGCAGCACGTGGTAAT	-0.08
CTGTGCACGTGTTTAT	-0.09
ATCGTCACGTGTGGTG	0.2
TGAGACACGTGTAGTA	0.05
AGATACACGTGTTTGG	0.04
TGACACACGTGTGTGG	0.04
GTGGCCACGTGAGGTC	0.15
GAAGACACGTGGGGTT	-0.05
TGTGACACGTGTATGC	-0.08
ACTGGCACGTGTGGGG	-0.1
TGGTGCACGTGAGGGC	0.23
TAGTGCACGTGATACG	-0.01
TTTGGCACGTGGTTTG	-0.06
ATTCGCACGTGTACGG	0.02
TTTATCACGTGTCTGG	-0.04
CCATGCACGTGGGTTG	-0.22
ACTGGCACGTGCGGGG	-0.16
AGGCACACGTGGGTAT	-0.08

Sequence	relative binding free energy [kcal/mol]
AGATTCACGTGAAGGA	0.32
AGTTACACGTGGGACT	0.09
TATTTCACGTGGAGAG	0.27
TCGGACACGTGTGTAG	0.07
GTTTGCACGTGATGTA	0.09
AGTACCACGTGGCGGT	-0.21
TTAGCCACGTGGGGTG	-0.31
GTGAACACGTGTAGGA	0.12
TTAGTCACGTGTTTAC	-0.02
AGTAACACGTGAATGT	0.27
GCTTTCACGTGAGGAG	0.42
TGATTCACGTGATGGT	0.44
TAGCGCACGTGTTTTT	-0.13
CGTGGCACGTGGTTGG	-0.08
AGTTACACGTGGCGCT	0.09
ATTTTCACGTGTCAGG	0.13
TAAGTCACGTGAGGTC	0.38
CGTAGCACGTGTTGAT	-0.04
TTTCGCACGTGGATTG	-0.01
GTATGCACGTGTGGCA	-0.11
AGAGTCACGTGAAATT	0.32
TTGTGCACGTGCCGGT	-0.09
TATTTCACGTGAAAAT	0.42
TGAAGCACGTGGTAAA	0
TTTTGCACGTGTACCG	0.09

Sequence	relative binding free energy [kcal/mol]
AGATACACGTGATGTG	0.09
GGAGACACGTGCGGTT	0.01
GGGCGCACGTGGCTGG	-0.2
CGGTGCACGTGGGCTT	-0.2
GCGGTCACGTGGCGTG	0.05
TTTTGCACGTGTGTCT	0.11
TCTGGCACGTGAATTG	0.1
GTGGCCACGTGGTGGA	-0.08
GGTGTCACGTGCGCGT	0.01
CTTAGCACGTGGGTAA	-0.24
TTGTGCACGTGTTGTA	0
TGAGACACGTGGCGAA	0.17
TACATCACGTGGGGGT	-0.02
ACGGCCACGTGGGGTG	-0.25
GAATGCACGTGGGGAA	-0.08
GTGTTCACGTGATAGG	0.45
ATAGGCACGTGTAAGG	0.03
TTCGGCACGTGTCGTA	-0.04
TTGGTCACGTGAATAT	0.29
AGCATCACGTGGGGTC	0.12
TAGGACACGTGGTATG	-0.06
TTTAGCACGTGGTCTA	-0.21
AGTGGCACGTGCAGAG	-0.09
GTAAGCACGTGGGCAT	-0.23
AGTCGCACGTGTGATT	0.07

Sequence	relative binding free energy [kcal/mol]
GCTAGCACGTGGTAGG	-0.02
AGGTGCACGTGCAAGG	-0.1
TGGTGCACGTGTGCAA	0.05
GTATGCACGTGTGATC	0.3
TTGATCACGTGGCAGT	-0.02
GTATACACGTGTTTAA	0.05
CGGGACACGTGCGGGA	-0.08
TTTGGCACGTGCTAGG	-0.19
TATGACACGTGTCGGT	-0.21
TGGATCACGTGGTCTG	0.09
GGTGGCACGTGGGATC	-0.07
ATTTCCACGTGGTATT	0
GAGGTCACGTGAAGGG	0.37
TTGTTCACGTGATTCA	0.35
AATGTCACGTGTACTG	0.01
CAATGCACGTGAGGGG	0.2
GGTAGCACGTGATCTG	0.08
TTGTTCACGTGGACTT	0.3
TTTGACACGTGGAGCG	0.03
GCTTGCACGTGTGGGA	0.02
ATCATCACGTGTGTGG	0.04
GGAAACACGTGTTAGG	-0.07
TTTATCACGTGTTTGT	0.22
TTTTTCACGTGATAAA	0.34
GTAAGCACGTGTGCAG	0.06

Sequence	relative binding free energy [kcal/mol]
TGCGGCACGTGGGACT	-0.21
GCAGTCACGTGGTCGT	0.16
TTCGGCACGTGTAATT	0.2
GGAGGCACGTGGCTAG	-0.05
TAATTCACGTGTAATT	0.27
TTTAGCACGTGAGTGC	0.12
TCAGGCACGTGGCGCG	-0.15
CGGAACACGTGAGTGT	0.24
TGTGGCACGTGTGAGG	-0.01
CGTGGCACGTGAGTAG	0.02
GAATTCACGTGTATGC	0.37
GATAGCACGTGGCGTG	-0.19
AGTAACACGTGGGATT	-0.06
TCTGTCACGTGTATAG	0.09
GTTCGCACGTGCGTTT	0
TAATGCACGTGTTAGC	-0.05
TGTGGCACGTGTAAAC	0.07
GGTATCACGTGGGCAG	0.07
GTGCTCACGTGTCGGA	0.41
CATCTCACGTGGGGGT	0.06
TCTGGCACGTGTAGGG	-0.02

From the BET-seq Pho4 binding data (Le et al. 2018)
